Where “and” joins values, the source holds several entries; their conditions need not be identical. Equal entries are not always repeated. In all, about 300,000 compounds went through this assay and about 480 (0.16%) were called active. The inconclusive results got no clear call from the source; some entries with a clear call stand among them for comparison.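 Rule for the calls: active = inhibition over 29.93%, a cutoff 3 SD above the screen mean, later confirmed by dose response; inconclusive = inhibition over 29.93% but no dose response follow-up; inactive = inhibition at most 29.93% or unconfirmed.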
Assay: inhibitors of PhoP regulon expression, primary screen, Salmonella Typhimurium, GFP reporter (AID 1863);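 note: 0% = low Mg2+ inducing control and 100% = high Mg2+ repressing control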
Conditions: S. Typhimurium PhoP-regulated promoter GFP reporter, 4 h; at 50 µM; stronger effect = higher value

| Structure (SMILES) | inhibition |
| --- | --- |
| C#CCOCCOCCOCCNc1nc(N2CCN(C(=O)CCCCCCCCCCNC(=O)[C@H](CCCCN)n3cc(C)nn3)CC2)nc(N2CCN(C(=O)CCCCCCCCCCNC(=O)[C@H](CCCN=C(N)N)n3cc(C[C@@H](C)CC)nn3)CC2)n1 | inactive: 23.8% |
| O=C(Cc1ccccc1)N/N=C/c1cc(Br)cc(Br)c1O | inactive: -8.98% |
| Cc1ccc(N(CCC#N)C(=O)CCl)cc1C | inconclusive: 50.2% |
| CO[C@H]1C=CO[C@@]2(C)Oc3c(C)c(O)c4c(O)c(c5c(c4c3C2=O)NC2(CCN(CC(C)C)CC2)N=5)=NC(=O)C(C)=CC=C[C@H](C)[C@H](O)[C@@H](C)[C@@H](O)[C@@H](C)[C@H](OC(C)=O)[C@@H]1C | inactive: -10.1% and inconclusive: 102% |
| O=C(NC(=S)Nc1ccc2c(c1)OCCO2)c1cccc(Br)c1 | inconclusive: 31.8% |
| CSC[C@H](NC(=O)Cc1c(C)c2cc3c(C)c(C)oc3cc2oc1=O)C(=O)N[C@@H](Cc1ccccc1)C(=O)O | inactive: 5.06% |
| CCN1/C(=C/c2ccc3ccccc3[n+]2CC)C=Cc2ccccc21 | inconclusive: 46.8% |
| Oc1ccc(N=Nc2nccs2)c(O)c1 | inconclusive: 27% |
| CCN1c2cccc3cccc(c23)S1(=O)=O | inconclusive: 39.5% |
| OC(CNCCc1ccc(Cl)cc1)COc1ccc2ccccc2c1 (stereo not drawn) | inactive: 7.14% |
| Cc1ccsc1C(C(=O)NCc1ccccc1)N(C(=O)c1csnn1)c1ccccc1 (stereo not drawn) | inactive: 12.3% |
| CC(C)c1ccc(C(=O)NC(=S)NCc2cccnc2)cc1 | inconclusive: 49.1% |
| CCCCc1nc2ccccc2c(N)c1CCC (tested in a mixture with another compound) | inconclusive: 43.7% |
| O=C(Oc1c(Cl)cc(Cl)c2cccnc12)c1cccc([N+](=O)[O-])c1 | inconclusive: 156% |
| COc1ccc(/C=C2/C(=O)N(c3nc4ccccc4s3)N=C2CSc2ccc(Cl)cc2)cc1 | inconclusive: 39.4% |
| CC1CCN(C(=O)c2ccccc2NC(=O)c2cccc(S(=O)(=O)N3CCOCC3)c2)CC1 | inconclusive: 30.9% |
| FC(F)(F)c1cccc(NC(=S)NNC(=S)Nc2ccc(Cl)cc2)c1 | inconclusive: 91.6% |
| C=CCN1CCN(C(=O)c2oc3ccccc3c2C)CC1 | inactive: -3.66% |
| CN(C)c1ccc(/C=C/c2ccc3ccccc3n2)cc1 | inactive: 0.11% |
| CCn1cc(C(=O)N[C@H](C)c2ccccc2)c(=O)c2cc(F)c(N3CCN(C)CC3)cc21 | inactive: 4.39% |
| Cc1[nH]cnc1CSCc1ccc(Cl)cc1 | inconclusive: 49.7% |

| Structure (SMILES) | inhibition |
| --- | --- |
| Cc1cccc(-n2c(C)cc(/C=N/NC(N)=S)c2C)c1 | inconclusive: 47.7% |
| O=C(CS(=O)(=O)c1ccccc1)NC1CCCCC1 | inactive: -0.8% |
| CCc1cccc2c(C(=O)COC(=O)c3ccc([N+](=O)[O-])s3)c[nH]c12 | inconclusive: 36.8% |
| COc1cccc(OCc2cc(C(=O)N3CCN(c4ccccc4O)CC3)no2)c1 | inactive: 8.64% |
| Cc1cc(C)cc(N(C(C)C(=O)Nc2c(C)n(C)n(-c3ccccc3)c2=O)S(C)(=O)=O)c1 (stereo not drawn) | inconclusive: 36.1% |
| CN(C(=S)Nc1ccc(Oc2ccccc2)cc1)C1CCCCC1 | inconclusive: 32.9% |
| O=C(NNc1c2ccccc2nc2ccccc12)c1ccc(O)cc1O | inconclusive: 32.3% |
| COc1ccc(-c2ccc(-c3nc4c(c(=O)[nH]c(=O)n4Cc4ccccc4)n3C)o2)c([N+](=O)[O-])c1 | inconclusive: 33.2% |
| CCn1nc(C(=O)N2CCN(Cc3ccc4c(c3)OCO4)CC2)c2ccccc2c1=O | inactive: -2.79% |
| CCCCNC(=S)Nc1ccc([N+](=O)[O-])cc1 | inconclusive: 31.8% |
| CC(=O)c1ccc(NC(=O)C(C)OC(=O)c2ccc3c(c2)nc(C)n3-c2ccccc2)cc1 (stereo not drawn) | inconclusive: 34.8% |
| O=C(C1=NN[C@@H]2C(=O)N(c3cccc(F)c3)C(=O)[C@H]12)c1ccc2ccccc2n1 | inconclusive: 39.4% |
| O=C(c1ccccc1)C(CCC(CN1CCOCC1)C(=O)c1ccccc1)CN1CCOCC1 (stereo not drawn) | inconclusive: 40.3% |
| CCOC(=O)C1CCCN(C(=O)c2ccc(-c3ccc([N+](=O)[O-])cc3)o2)C1 (stereo not drawn) | inactive: 3.02% |
| CCOC(=O)C1=C(c2ccccc2)NC(N)=NC1c1ccc(OCc2ccc(Cl)cc2)c(OC)c1 (stereo not drawn) | inconclusive: 31.5% |
| CN(C)CCCNc1cc(C(C)(C)C)nc2c(-c3ccc(Cl)cc3)cnn12 | inconclusive: 153% |
| C/C(=N\Nc1ccc2nncn2n1)c1ccccn1 | inconclusive: 45.1% |
| CCN(CC)S(=O)(=O)c1ccc2c(c1)nc(CCC(=O)Nc1ccc3c(c1)OCO3)n2CC | inconclusive: 32.2% |
| CCC(=O)NC(c1cccs1)c1cc(Cl)c2cccnc2c1O (stereo not drawn) | inactive: 14.8% |
| CN(C)[C@@H]1C(=O)C(C(N)=O)=C(O)[C@@]2(O)C(=O)C3=C(O)c4c(O)ccc(Cl)c4[C@@H](O)[C@H]3C[C@@H]12 | inconclusive: 102% and inconclusive: 124% |
| O=C(CNC(=O)c1ccccc1)Nc1cccc(C(F)(F)F)c1 | inactive: -8.93% |

| Structure (SMILES) | inhibition |
| --- | --- |
| COc1ccccc1N1CCN(CC(=O)c2c(C)[nH]c3cc(C)ccc23)CC1 | inactive: -0.55% |
| Nc1nc(SCc2ccc([N+](=O)[O-])cc2)nc2nc3c(cc12)CCCC3 | inconclusive: 32.5% |
| O=C(O)c1sccc1Oc1ccc(F)cc1[N+](=O)[O-] | inconclusive: 59.9% |
| COC(=O)c1ccccc1NC(=O)C1CCN(C(=O)Cc2ccccc2)CC1 | inactive: 3.37% |
| Cc1cc(=O)[nH]c(N/N=C/c2ccccn2)n1 | inconclusive: 90.4% |
| Cn1c(=O)c(C(=O)NNC(=O)c2ccccc2Cl)c(O)c2ccccc21 | inactive: 3.12% |
| FC(F)(F)c1ccc(N/N=C/c2cccnc2)nc1 | inactive: -0.8% |
| COc1ccc(C(=O)CCC(=O)NCCc2c[nH]c3ccccc23)cc1 | inactive: 8.52% |
| NC(=O)CC1Nc2cccc3cccc(c23)NC1=O (stereo not drawn) | inconclusive: 49.1% |
| O=C1C=C(NCc2ccc(Cl)cc2)CCC1 | inconclusive: 38.5% |
| Cn1nc(-c2ccccn2)nc2c(=O)n(C)c(=O)nc1-2 | inconclusive: 75% |
| CCN(CC)c1ccc(/C=N/Nc2nc3ccccc3[nH]2)cc1 | inconclusive: 53.4% |
| CCCOC(=O)C[N+](C)(C)CCOC1CC2CCC1(C)C2(C)C (stereo not drawn) | inactive: -23.2% |
| CSc1nc2cc(Oc3cccc(Cl)c3Cl)c(Cl)cc2[nH]1 | inconclusive: 34.3% |
| COc1ccc(C2NCCc3c2[nH]c2ccccc32)cc1COc1ccc(F)cc1 (stereo not drawn) | inconclusive: 45.4% |
| O=C(Cn1nc(CNc2ccc(Cl)cc2)[n+]2c1CCCCC2)c1ccccc1 | inactive: 8.62% |
| Cc1ccc(Nc2cc(C)nc(NCc3ccccc3)n2)cc1 | inconclusive: 190% |
| c1ccc(Nc2nc(NCc3ccco3)c3ccccc3n2)cc1 | inconclusive: 135% |
| FC(F)(F)c1cc(C(F)(F)F)c2ccc(N/N=C/c3cccc(Cl)c3)nc2n1 | inconclusive: 7.27% |
| CC1(C)CC(=O)C2=C(C1)NC1=C(C(=O)c3ccccc31)C2c1ccc(Cl)cc1 (stereo not drawn) | inconclusive: 37.6% |
| O=C(Cn1c(/C=C/c2ccccc2)nc2ccccc21)Nc1ccc(F)cc1 | inconclusive: 36.2% |

| Structure (SMILES) | inhibition |
| --- | --- |
| COc1ccccc1NC(=O)C(Sc1ccccc1)c1ccccc1 (stereo not drawn) | inconclusive: 33.4% |
| OC(c1cc(-c2ccc(Cl)cc2)nc2ccccc12)C1CCCCN1 (stereo not drawn) | inconclusive: 75.7% |
| CC(NCc1ccccc1O)c1ccccc1 (stereo not drawn) | inactive: -3.45% |
| O=c1nc(N/N=C/c2ccccn2)cn[nH]1 | inconclusive: 98.5% |
| CCCC(=O)NC(c1ccccc1OC)c1ccc2cccnc2c1O (stereo not drawn) | inconclusive: 31.4% |
| CCCCn1c(=N)n(CC(=O)c2ccc([N+](=O)[O-])cc2)c2ccccc21 | inconclusive: 87.6% |
| Cc1ccccc1NC(=S)NCc1cccn1C | inconclusive: 43.1% |
| Cc1[nH][nH]c(=O)c1C(c1c(C)[nH][nH]c1=O)c1cn(Cc2ccccc2Cl)c2ccccc12 | inconclusive: 31.8% |
| Cc1ccc(C(=O)NC(NC(=S)Nc2ccc(S(N)(=O)=O)cc2)C(Cl)(Cl)Cl)cc1 (stereo not drawn) | inconclusive: 33.3% |
| O=C(C[n+]1cccc(CNC(=O)c2ccc(OC(F)F)cc2)c1)Nc1ccc(F)cc1 | inactive: 5.04% |
| Cc1cc(C)c2nc(NNC(=O)c3ccc(S(=O)(=O)N4CCCC(C)C4)cc3)sc2c1 (stereo not drawn) | inconclusive: 31.6% |
| O=C(C1CC1)N1CCc2cc(Br)cc(S(=O)(=O)NCc3ccc4c(c3)OCO4)c21 | inconclusive: 33.2% |
| COc1ccccc1N=CC=C1OC(C)(C)C(C)(C)O1 | inactive: -3.09% |
| Cc1no[n+]([O-])c1COc1cccc(/C=C2\N=C(c3ccccc3)OC2=O)c1 | inconclusive: 32.2% |
| c1cncc(-c2nc(NCC3COc4ccccc4O3)c3ccccc3n2)c1 (stereo not drawn) | inconclusive: 32.5% |
| COc1ccc(C(=O)NC(=S)NNC(=O)c2cnccn2)cc1 | inconclusive: 42.7% |
| O=C(N/N=C/c1cccc2cccnc12)c1ccccc1O | inconclusive: 72.7% |
| OC1CCN(Cc2ccc(OCc3ccccc3)cc2)CC1 | inactive: 2.08% |
| CCCCCCn1nc(C(=O)Nc2nc3c(s2)CCCC3)c2ccccc2c1=O | inconclusive: 36.1% |
| CC(C)Nc1ccc(Nc2ccnc3cc4ccccc4cc23)cc1 | inconclusive: 37.4% |
